# According to PubChem BioAssay AID887 (National Center for Advancing Translational Sciences (NCATS), 2007):
# Out of some 74,000 compounds screened, about 1,100 (1.5%) were called active. The inconclusive results got no clear call from the source; some entries with a clear call stand among them for comparison. The call rests on the fitted dose curve; in most records, active means well fitted inhibition curve with a large enough effect; inconclusive means small, poorly fitted or top-dose-only effect; inactive means no such curve, though single readings can be large or run the other way. No potency is given beside an inconclusive call; the fits are too rough.
# Target: Polyunsaturated fatty acid lipoxygenase ALOX15 (Homo sapiens) (UniProt P16050)
# Test: qHTS Assay for Inhibitors of 15-hLO (15-human lipoxygenase); further: nearly all actives have a fitted effect of over 55% in size
# Conditions: purified 15hLO-1, xylenol orange hydroperoxide absorbance; activity change, negative = inhibition: at 57.1 µM (top of the series) unless noted
# In short: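 Purified human 15hLO-1 (40 nM final) in 25 mM Hepes pH 7.5, 0.01% Triton X-100 was preincubated with compound 15 min at room temperature, then reacted 6 min with 50 uM arachidonic acid; hydroperoxide detected by Fe-XO, 573/405 nm absorbance ratio.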
# On the % scale 0 is the no-effect control and ±100 the full control effect; potency means the concentration at half of the fitted maximal effect; tags describe the fitted curve by direction and shape.
# UniProt P16050, sequence (P16050 whole entry, looked up): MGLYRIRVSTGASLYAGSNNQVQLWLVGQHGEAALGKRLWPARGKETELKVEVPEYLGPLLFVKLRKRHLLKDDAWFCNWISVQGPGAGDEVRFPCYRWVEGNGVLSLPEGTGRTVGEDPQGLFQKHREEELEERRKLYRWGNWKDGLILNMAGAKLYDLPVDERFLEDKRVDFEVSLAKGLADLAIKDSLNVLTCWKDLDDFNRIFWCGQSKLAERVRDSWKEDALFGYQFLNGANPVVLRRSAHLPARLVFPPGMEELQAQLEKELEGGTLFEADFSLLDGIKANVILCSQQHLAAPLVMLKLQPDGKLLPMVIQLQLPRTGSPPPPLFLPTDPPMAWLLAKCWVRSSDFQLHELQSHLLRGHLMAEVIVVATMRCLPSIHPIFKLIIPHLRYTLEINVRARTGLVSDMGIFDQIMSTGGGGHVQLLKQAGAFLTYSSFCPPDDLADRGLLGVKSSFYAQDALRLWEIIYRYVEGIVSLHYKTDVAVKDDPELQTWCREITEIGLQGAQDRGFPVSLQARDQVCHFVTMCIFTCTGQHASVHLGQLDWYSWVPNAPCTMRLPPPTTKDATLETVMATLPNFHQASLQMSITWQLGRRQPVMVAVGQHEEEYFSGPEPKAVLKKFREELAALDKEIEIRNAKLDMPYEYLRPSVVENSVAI
SMILES,Potency,"activity change, negative = inhibition"
N#CC1=C(N)SC(N)=C(C#N)C1CCC1CCCCC1,active: 15.8 µM,
O=C(O)c1cccc(Cl)c1Cl,,inactive: -2.61%
c1cncc(-c2noc(-c3ccco3)n2)c1,,inactive: 7.99%
Cc1ccc(NC(=O)COC(=O)C2=COCCO2)cc1,"inconclusive [inhibitor, partial curve]",
COC(=O)c1cccc(Oc2nc3c(c(=O)n(C)c(=O)n3C)n2C(C)C)c1,,inactive: 12.6%
O=C1c2[nH]nc(-c3ccccc3O)c2C(c2ccccc2)N1Cc1ccco1 (stereo not given),"inconclusive [inhibitor, single point]",
COc1ccccc1-c1nnc(NC(=O)OCC(C)C)s1,,inactive: -2.63%
Oc1ccc(N=Cc2ccc(-c3cccs3)s2)cc1,active: 3.98 µM,
COC(=O)c1sc(=S)n(-c2cccc(Cl)c2)c1N,"inconclusive [inhibitor, partial curve]",
Cc1noc(C)c1-c1nc(Nc2ccncc2)c2ccccc2n1,"inconclusive [inhibitor, partial curve]",
Cc1ccc(O)c(C(=O)c2cnc3c(c2)CN(CCC(C)C)C(=O)N3)c1,"inconclusive [inhibitor, partial curve]",
CCCCCCC/C=C\CCCCCCCCC(=O)O,"inconclusive [inhibitor, single point]",
COc1cccc(-c2cncnc2N(C)Cc2ccco2)c1,"inconclusive [inhibitor, single point]",
Cc1nn(-c2ccccc2C(=O)O)c(=O)c2ccccc12,,inactive: -2.47%
Cc1ccn(S(=O)(=O)c2ccc(C(C)(C)C)cc2)n1,"inconclusive [inhibitor, single point]",
Cc1cc(Cl)cc(Cl)c1OCC(=O)NCc1ccco1,"inconclusive [inhibitor, single point]",
CCCc1[nH][nH]c(=O)c1C(c1cccc(Cl)c1)C(C#N)C#N (stereo not given),"inconclusive [inhibitor, single point]",
COc1ccccc1CN1CCCC2(CCN(S(C)(=O)=O)CC2)C1,,inactive: -1.02%
c1ccc(Cc2nn3c(C4COc5ccccc5O4)nnc3s2)cc1 (stereo not given),"inconclusive [inhibitor, partial curve]",
CCOC(=O)N1CCC(n2c(SCC(=O)NCCC3=CCCCC3)nc3ccccc3c2=O)CC1,active: 15.8 µM,
COc1ccc2oc(C(=O)c3ccccc3)c(NC(=O)CN3CCN(C)CC3)c2c1,,inactive: -3.92%
CC(C)(C)n1ncc2c(=O)n(CC(=O)N3CCCc4ccccc43)cnc21,"inconclusive [inhibitor, full curve]",
NC(=O)NCC(N)C(=O)O (stereo not given),,inactive: -4.54%
CN1CCN(C(=O)c2cc(Cl)ccc2Cl)CC1,"inconclusive [inhibitor, partial curve]",
CCc1cc2cc3c(cc2nc1SCC(=O)N1CCN(C(=O)c2ccco2)CC1)OCO3,"inconclusive [inhibitor, partial curve]",
